Reference: the supplement of paper PMC3334620
The full ranking holds about 33,000 sequences; the median of “E-score (-0.5 to 0.5)” is about -0.021, and the highest 2% start at about 0.32. The list shows a part of the results.

Molecular target: T1, Zap1 (UniProt P47043)
T1 sequence: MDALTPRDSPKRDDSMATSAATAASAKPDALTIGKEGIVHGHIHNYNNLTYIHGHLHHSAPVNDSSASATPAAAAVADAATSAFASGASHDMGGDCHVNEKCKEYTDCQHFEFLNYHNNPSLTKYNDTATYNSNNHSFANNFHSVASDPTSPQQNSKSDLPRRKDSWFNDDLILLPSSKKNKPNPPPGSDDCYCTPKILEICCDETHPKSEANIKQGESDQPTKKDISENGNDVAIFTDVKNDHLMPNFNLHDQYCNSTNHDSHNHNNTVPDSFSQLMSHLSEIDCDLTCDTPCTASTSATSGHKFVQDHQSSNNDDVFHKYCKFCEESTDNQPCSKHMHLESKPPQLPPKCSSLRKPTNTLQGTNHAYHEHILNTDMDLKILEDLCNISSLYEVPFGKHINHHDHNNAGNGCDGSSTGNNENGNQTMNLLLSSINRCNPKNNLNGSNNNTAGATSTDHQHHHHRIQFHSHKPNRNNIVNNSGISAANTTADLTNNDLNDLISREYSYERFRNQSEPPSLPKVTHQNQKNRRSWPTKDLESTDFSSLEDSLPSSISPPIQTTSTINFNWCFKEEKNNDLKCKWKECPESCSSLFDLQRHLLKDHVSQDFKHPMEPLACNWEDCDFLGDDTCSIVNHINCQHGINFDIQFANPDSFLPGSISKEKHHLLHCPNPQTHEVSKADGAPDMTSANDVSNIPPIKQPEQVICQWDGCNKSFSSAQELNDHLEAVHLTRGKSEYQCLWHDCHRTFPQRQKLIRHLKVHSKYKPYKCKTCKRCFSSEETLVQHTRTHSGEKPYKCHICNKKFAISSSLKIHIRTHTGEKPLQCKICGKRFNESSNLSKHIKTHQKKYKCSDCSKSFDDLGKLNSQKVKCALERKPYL
Experiment: PBM E-score (8-mer binding enrichment) (E-score (-0.5 to 0.5)); higher = stronger / more preferred TF binding; most listed sequences are background and not binding sites
Conditions: protein concentration: 200 nM; construct: GST-full length
Method in brief: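 Bound GST-tagged yeast transcription factors, applied at about 100-200 nM to double-stranded universal all-10-mer Agilent arrays, were detected with fluorescent anti-GST. Scans were normalised with masliner. A modified Wilcoxon-Mann-Whitney statistic, the E-score, was assigned to each ungapped eight-base word pooled with its reverse complement by the Universal PBM Analysis Suite.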

| Sequence | PBM E-score |
| --- | --- |
| GCCTTCAA | -0.0467 |
| ATATCGCC | -0.0515 |
| AGTGCATG | -0.244 |
| CCTAGCGC | -0.0463 |
| AACACACT | -0.0742 |
| CAACCGTC | 0.0248 |
| ACTTTCAC | 0.0623 |
| ACAAAGCT | 0.0945 |
| AATAGTAG | 0.0797 |
| GTCATACA | -0.0161 |
| AAAGTACG | 0.091 |
| CGCAATTA | 0.107 |
| GTTTGATA | 0.149 |
| CTATCAGC | 0.0383 |
| CCATTGAA | 0.174 |
| GGATCGTA | -0.138 |
| GTCGGCTA | -0.139 |
| CTAACCCC | 0.178 |
| GAGGGATA | -0.0761 |
| ATTACGTG | 0.0274 |
| CGCTTACG | -0.315 |
| GGATCTAA | -0.00806 |
| ACACTCCA | -0.0521 |
| CCAAGCAG | 0.00906 |
| AACCAGTC | 0.178 |

| Sequence | PBM E-score |
| --- | --- |
| AGGCGTGG | -0.21 |
| AATCTGTG | -0.18 |
| AACTAGCG | -0.0485 |
| CTCATGAC | 0.0653 |
| AGACGGCG | -0.189 |
| AGTCTTTA | -0.13 |
| AGTATCAT | 0.0198 |
| CCAAGACA | -0.013 |
| CTCGCGAC | 0.0966 |
| TACGGGCA | 0.0915 |
| ACGCACAT | -0.145 |
| ATAGATAG | -0.17 |
| ATTCCTCA | 0.058 |
| ACACGTCA | -0.167 |
| CCGAAACA | 0.127 |
| AGCTGGAA | -0.162 |
| CTTGACTA | -0.0131 |
| CAGCCCAC | -0.113 |
| ACTCTCGA | 0.0278 |
| AGCTAGGG | -0.0047 |
| CGTATTAA | 0.0698 |
| ACCCTATG | 0.368 |
| ACAGTCCG | -0.112 |
| GCGGGGCC | -0.0181 |
| ACTATCGC | -0.0428 |

| Sequence | PBM E-score |
| --- | --- |
| ACTAAGTC | -0.208 |
| CCCGGCCC | 0.0417 |
| TATAAAGA | 0.166 |
| CTTCTTAC | -0.117 |
| GCCAATAA | 0.143 |
| AAAGCTGT | -0.081 |
| AATACGAG | 0.0893 |
| AATGAACG | -0.109 |
| AACCTACC | 0.268 |
| AACCATCC | 0.0998 |
| CAGGCTCC | -0.345 |
| AACAAAAT | 0.0834 |
| AGGAGGAC | -0.272 |
| CCGCTCTA | -0.0142 |
| CAATGGGG | 0.156 |
| CTGGGGGA | -0.279 |
| CATAGTTC | -0.0247 |
| CGAACACC | 0.0572 |
| TCGTACGA | 0.0803 |
| GCCTTCCC | -0.271 |
| GCATGGCC | 0.0872 |
| ATATAATC | -0.0159 |
| AACCACGG | 0.124 |
| ATTGGGCC | 0.0292 |
| CCCAGCGG | -0.135 |

| Sequence | PBM E-score |
| --- | --- |
| CGGCATTA | 0.0847 |
| CTGGGTAC | 0.305 |
| AGTGGAAC | 0.023 |
| ACGGTAGG | -0.0223 |
| AGGTCACT | 0.25 |
| AGCGAACC | -0.0358 |
| TAAACCTA | 0.137 |
| TCCGTAGA | 0.0934 |
| CAGGCTTA | -0.135 |
| AATCATCC | -0.0964 |
| AAACCGTA | 0.184 |
| ATTCGCTA | -0.113 |
| AGGGCGCC | -0.232 |
| GATATAGA | -0.113 |
| CATACGGC | -0.103 |
| CTCATCAA | 0.00695 |
| CGATAGCA | -0.169 |
| ATGATCTA | 0.182 |
| CTCAACCA | 0.00637 |
| CGACCCCA | 0.215 |
| ACGGTTGG | -0.0119 |
| ACCAGTAC | 0.115 |
| CACGCACC | -0.0856 |
| ACTAGGCT | 0.0455 |
| AGGCTAGA | -0.15 |

| Sequence | PBM E-score |
| --- | --- |
| CTGTCTGC | -0.24 |
| CCTTCTAG | 0.123 |
| ATGAGGTG | 0.0386 |
| GCAGGGTA | 0.373 |
| TGGACACA | -0.0121 |
| AATCCCTG | -0.122 |
| TTTATAAA | 0.248 |
| ACTGGAAC | -0.0151 |
| ACTACACT | -0.0734 |
| ACGATAAC | 0.298 |
| ATCGCTCG | -0.126 |
| AGTCGATG | -0.141 |
| AAGCCAGT | -0.294 |
| AGGGAGGC | -0.281 |
| ACTCGCGG | 0.129 |
| CGATGATC | -0.00936 |
| ATGTCACG | -0.195 |
| AAGACGAG | -0.161 |
| GAGGCAAA | 0.0604 |
| AGCGTTGA | -0.143 |
| GACGGTGC | -0.0913 |
| GTGGCCAC | 0.214 |
| CGGTTAAA | 0.328 |
| ACTGCATC | -0.00683 |
| GAGGTTGA | -0.00385 |

| Sequence | PBM E-score |
| --- | --- |
| ATTATAAA | 0.0699 |
| CCTAGCGA | -0.23 |
| TACCGAGA | 0.156 |
| CAGACCAC | 0.0673 |
| GACTCAGA | -0.0646 |
| AATTTGAC | 0.118 |
| AAGCCCCG | -0.183 |
| TTGAGCAA | -0.0776 |
| GAGTACGC | -0.0819 |
| GCAGAGAC | -0.307 |
| CCTCCTGC | -0.168 |
| CGCATTAA | 0.172 |
| AACCTTGG | 0.274 |
| CAACCCAG | 0.113 |
| CTGGACAA | -0.16 |
| CGACAAAA | 0.277 |
| ACCACCGA | 0.172 |
| TCTGCCCA | -0.289 |
| AGTGCGAT | -0.0361 |
| GGTTCAGA | -0.0861 |
| GGTTTTGA | 0.253 |
| AGAGGACC | 0.0193 |
| CTTTTGGA | 0.0485 |
| TCAATAAA | 0.0711 |
| TCCAGAGA | -0.321 |

| Sequence | PBM E-score |
| --- | --- |
| CCGATACC | 0.0713 |
| CCCTCACA | 0.027 |
| ACCATCTC | -0.0172 |
| CCATATGA | 0.0912 |
| ATAGAGGC | -0.125 |
| ATTCAGGA | -0.058 |
| AGTATCGC | -0.241 |
| CTTCACGA | -0.189 |
| AAAGAACT | 0.0294 |
| GCATGGTA | 0.132 |
| CTTTTCGA | 0.104 |
| GTATCGAA | 0.185 |
| TATTCGCA | 0.0161 |
| CGAACAAA | 0.254 |
| CAGCGAAG | -0.0164 |
| GACCTCAA | 0.295 |
| CCCACCGC | 0.00509 |
| ATCTCCTG | 0.063 |
| GCTCGAAA | -0.0282 |
| CAACCGAG | 0.078 |
| ATTGTTCG | 0.234 |
| GCACGCCA | -0.201 |
| GCGGCGCC | 0.131 |
| TCTCTAAA | -0.0277 |
| AGGTAGGA | 0.00828 |

| Sequence | PBM E-score |
| --- | --- |
| GACCTAAA | 0.151 |
| GAAAGCAA | 0.179 |
| ACACGATA | 0.059 |
| TGGTCCAA | -0.0135 |
| CTAGGGAG | -0.129 |
| ACCTTAGC | 0.237 |
| CCGTAAGA | -0.119 |
| CTAGAACA | -0.0455 |
| TGAGCGAA | 0.0429 |
| AACCCCGA | 0.266 |
| GGGCCCCC | -0.0263 |
| AGCGTACG | -0.279 |
| AGGGTCAT | 0.449 |
| AACGTCGT | -0.125 |
| CTGGCTGA | -0.273 |
| GTGTAGTA | 0.00904 |
| AGTCGCAA | 0.0255 |
| ATTAATAG | 0.195 |
| CCCACCAA | -0.0734 |
| AAGGCCCT | 0.0667 |
| CTCAAAGC | -0.0283 |
| AGTTGGAA | -0.042 |
| AATCGGTA | 0.00973 |
| TCACCTAA | 0.116 |
| CATTCGCA | -0.087 |

| Sequence | PBM E-score |
| --- | --- |
| GAATGTGA | -0.0969 |
| GAGAGCTC | -0.0971 |
| ATCAGTTC | -0.0391 |
| AGATCCAG | -0.0992 |
| AATCGCGT | 0.0556 |
| CTCCACTA | -0.0846 |
| GAACTGGC | -0.0649 |
| AGAAGAGC | -0.32 |
| AGACCACA | 0.121 |
| CCGAATCG | -0.103 |
| ACTACGCG | -0.00612 |
| AAACGTCG | -0.109 |
| AATTATGT | 0.00153 |
| CCGTGAGC | -0.191 |
| ACCGTTCC | 0.0949 |
| AGAGACGA | -0.0945 |
| GCAGTGGC | -0.0743 |
| CACCAGTA | -0.0763 |
| ATAGGGGC | -0.0114 |
